Data taken from PubChem BioAssay AID493208 (National Center for Advancing Translational Sciences (NCATS), 2011).
Out of some 44,000 compounds screened, about 340 (0.77%) were called active. Inconclusive results (about 5%) are left out. Calls come from the whole dose curve; as a rule, active = well fitted inhibition curve with a large enough effect; inconclusive = small, poorly fitted or top-dose-only effect; inactive = flat fitted curve, though single readings scatter. Some of the results follow.

Experiment: Acumen qHTS Assay for Inhibitors of the mTORC1 Signaling Pathway in MEF (Tsc2-/-, p53-/-) Cells: Sytravon;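 note: plate controls were DMSO for no effect and rapamycin for full effect; nearly all actives have a fitted effect of over 50% in size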
Conditions: phospho-rpS6 immunofluorescence/PI, 24 h; series mostly up to 38.3 µM; activity change, negative = inhibition: at the top concentration
Summary of the method: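 Readout is phospho-S6 Alexa 488 signal normalized to PI per well, reported as % active cells with thresholds set from rapamycin (7.5 nM) and DMSO controls. Cells: Tsc2-/-, p53-/- MEFs, 24 hrs compound at 37 C; PI cell number serves as viability.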

Activity change, negative = inhibition, inactive:
COc1ccc(-c2ccc(NS(=O)(=O)c3ccccc3Cl)cc2)nn1 3.13%
Cc1nc(N2CCOCC2)c2c(C(=O)N3CCN(c4ccc(Cl)cc4)CC3)c(C)oc2n1 2.68%
COc1ccc(Cn2c(CCC(=O)Nc3cccc(Cl)c3)nc3cccnc32)cc1 -14.4%
CCOc1ccc(C(c2c(C)[nH]n(-c3ccccc3)c2=O)c2c(C)[nH]n(-c3ccccc3)c2=O)cc1OC -1.33%
COc1ccc(-c2nsc(NC(=O)c3cccc(OC)c3)n2)cc1 0.158%
CCN(CC)CCNC(=O)c1ccc2c(=O)n3nc(Nc4cccc(Cl)c4C)sc3nc2c1 -24.8%
CCc1ccc(-c2cn3c(n2)sc2cc(C(=O)NCCCc4ccccc4)ccc23)cc1 3.85%
CCOc1ccccc1CNC(=O)c1ccc2nc(CCc3ccccc3)oc2c1 -5.18%
CCc1nn2c(=O)cc(COC(=O)c3cccs3)nc2s1 -6.59%
COC(=O)c1ccc(CN(Cc2ccc(OC)c(OC)c2)S(=O)(=O)c2ccc(F)c(C(=O)Nc3cc(C)ccc3C)c2)cc1 -10.8%
CCOc1ccccc1NC(=O)CN1Cc2ccccc2C1=O 0.359%
N#Cc1nc(/C=C/c2ccc(F)cc2)oc1N1CCCCC1 0.0534%
CC(Oc1ccccc1)C(=O)Nc1ccc(C(=O)OCc2cc(=O)n3ccsc3n2)cc1 (stereo unspecified) 8.53%
Cc1cccc(C(=O)NCC(=O)OCc2cc(=O)n3nc(C)sc3n2)c1 -9.82%
CCOC(=O)c1ccc(NC(=O)Cn2cc(S(=O)(=O)Cc3ccccc3F)c3ccccc32)cc1 -6.79%
CCCOc1ccccc1C(=O)Nc1ccc(-c2nc3ccc(C)cc3s2)cc1 1.4%
Cc1cccc(Nc2cc(C)nc3nc(Cc4ccc(Cl)cc4)nn23)c1 1.49%
Cc1cc(-c2ccccc2)nc2cc(C(=O)Nc3cc(C(F)(F)F)ccc3Cl)nn12 12.8%
COc1ccc(CNC(=O)c2ccc3c(Cl)c4c(nc3c2)CCCC4)c(OC)c1 -6.93%
Cc1nc(SCC(=O)Nc2ccc(Cl)cc2C(F)(F)F)[nH]c(=O)c1Cc1ccccc1 -10.3%
Cc1ccc(Cn2cc3c(n2)-c2c(oc(C(=O)Nc4ccc(F)cc4F)c2C)CC3)cc1 6.98%
CCN(Cc1ccccc1)Cc1c(O)ccc2c(=O)c(-c3ccccc3Cl)coc12 2.15%
CCn1cc(C(=O)NCCCOC(C)C)c(=O)c2cc(S(=O)(=O)N(C)C3CCCCC3)ccc21 -1.14%
O=C(NCc1ccccc1)c1ccc(Cn2c(=O)c3cccn3c3cccnc32)cc1 -10.5%
CCOC(=O)c1c(-c2ccccc2)csc1NC(=O)c1cc(-c2cccc(Cl)c2)on1 1.24%
Cc1ccc(C)c(N2CCN(S(=O)(=O)c3ccc4c(c3)n(C)c(=O)c(=O)n4C)CC2)c1 -11.4%
COc1cc(OC)c(NC(=O)CSCc2nc(-c3ccc(OC)c(OC)c3)no2)cc1Cl -10.9%
CC(=O)c1cccc(NC(=O)c2ccc3c(c2)c(C)c(C)n3Cc2ccc(Cl)cc2)c1 -18.2%
O=C(Nc1cc(-c2nc3cc(Cl)ccc3o2)ccc1Cl)c1cc2ccccc2o1 8.32%
COc1ccccc1NC(=O)CCn1cnc2onc(-c3ccc(F)cc3)c2c1=O -8.5%
COc1cc(C)ccc1OCCSc1nc2ccc(NC(=O)c3ccc(C)cc3)cc2s1 -1.84%
CC1(C)CC(=O)c2cc(-c3nc(-c4ccc(Cl)cc4)cs3)c(=O)n(-c3cccc(F)c3)c2C1 -2.45%
COc1ccc(-c2ccc(CCC(=O)O)n2CC(=O)Nc2cccc(Cl)c2C)cc1 -15.3%
COc1ccc(CNC(=O)CCc2c(C)nc3nc(CNC(=O)OC(C)(C)C)nn3c2C)cc1 0.728%
Cn1cc(C(=O)NCCc2ccccc2)c(=O)c2cc(S(=O)(=O)N3CCCCCC3)ccc21 7.37%
Cc1c(C(=O)N(Cc2ccc(N(C)C)cc2)Cc2ccco2)oc2cc(Br)ccc12 5%
CC(=O)c1cccc(Nc2nn(-c3ccc(OC(F)(F)F)cc3)nc2C(C)=O)c1 0.759%
CCCSc1nnc2c(n1)OC(c1ccc(OCC(=O)O)cc1)Nc1ccccc1-2 (stereo unspecified) 1.55%
COc1ccccc1-c1noc(-c2ccc(NCc3cccnc3)c([N+](=O)[O-])c2)n1 -2.24%
O=C(CN1C(=O)CC(c2ccco2)Sc2ccccc21)Nc1ccc(Br)cc1 (stereo unspecified) 0.0263%
COc1ccc(-n2ccn(Cc3ccccc3C)c(=O)c2=O)cc1 0.0552%
Cc1ccc(OCC(=O)Nc2ccc3[nH]c(=O)sc3c2)cc1 -9.65%
CCc1cc2c(cc3c(=O)n(CC(=O)NC4CCCCC4)ncn32)s1 -6.49%
COc1cccc(C(c2sc3nc(-c4ccco4)nn3c2O)N2CCN(c3ccccc3F)CC2)c1 (stereo unspecified) 1.01%
CCOc1ccc(N(C(C)C(=O)NCCSc2ccc(C)cc2)S(C)(=O)=O)cc1 (stereo unspecified) -25.8%
CCCCn1cc(S(=O)(=O)c2ccc(CC)cc2)c(=O)c2cc(F)c(N3CCOCC3)cc21 -2.69%
Cc1cc(C)cc(NC(=O)C(=O)NCC(c2cccnc2)N2CCN(c3ccccc3)CC2)c1 (stereo unspecified) -3.2%
O=C1CN(C(=O)Nc2ccccc2Cl)C(c2ccccc2)c2c(sc3c2CCCC3)N1 (stereo unspecified) 3.6%
Cc1nn(-c2ccccc2)c2c1N(CCCC(=O)NCc1ccccc1)C(=O)CS2 -3.88%
COc1ccc(NC(=O)C(C)Sc2cc(-c3ccccc3)nc(C)n2)cc1Cl (stereo unspecified) -3.4%
COc1ccc(-c2cc(C(=O)NCCc3ccc(OC)c(OC)c3)c3ccccc3n2)cc1 14%
O=C(COc1ccc(F)cc1)Nc1ccccc1OCc1cc(=O)n2ccccc2n1 8.37%
COc1ccc(-c2noc(-c3ccc(NC4CCCCC4)c([N+](=O)[O-])c3)n2)cc1 2.86%
CCc1nn2c(=O)cc(COC(=O)c3ccc(NC(=O)C4CCCCC4)cc3)nc2s1 0%
CCC1CCc2nc3sc(C(=O)Nc4cccc(C(F)(F)F)c4)c(N)c3cc2C1 (stereo unspecified) -15.8%
CCCc1cc(=O)oc2cc(C)c3c(C(C)(C)C)coc3c12 2.78%
COc1cccc(NC(=O)c2ccc3[nH]c(C)cc(=O)c3c2)c1 -2.81%
O=C(CCn1c(=O)c2cccn2c2cccnc21)NCc1ccccc1F 0.585%
COc1ccc(S(=O)(=O)Nc2cc3c(cc2N2CCOCC2)n(C)c(=O)n3C)cc1 5.53%
COC(=O)c1ccc(Cn2nc(-c3ccc(C)cc3)ccc2=O)cc1 -4.88%
NC(=O)CSc1nnnn1-c1cccc(O)c1 -1.79%
COc1cccc(CN2C(=O)C3(SCC(=O)N3c3ccc(C(C)C)cc3)c3ccccc32)c1 (stereo unspecified) -2.11%
Cn1c(SCc2ccccc2Cl)nc2c([nH]c3ccccc32)c1=O -0.0889%
O=C(c1ccc2c(c1)OCCO2)N(Cc1cccnc1)c1nc2c(F)cc(F)cc2s1 -4.39%
COc1ccc(N(CC(=O)Nc2cc(Cl)ccc2C)S(=O)(=O)c2c(C)noc2C)cc1 -17.3%
CCOc1ccc(NS(=O)(=O)c2ccc3[nH]cc(C(=O)N4CCCCCC4)c(=O)c3c2)cc1 1.75%
CCOc1ccc(C(=O)Nc2ccc3oc(-c4ccc(Br)cc4)nc3c2)cc1 10.2%
Cc1ccccc1-c1nc(SCC(=O)NCC2CCCO2)c2c(=O)n(C)c(=O)n(C)c2n1 (stereo unspecified) 5.7%
COc1ccc(Cc2nc3ccc(C(=O)NCCCN4CCN(C)CC4)cc3o2)cc1 1.43%
COCCNC(=O)c1ccc2c(=O)n(CCOC)c(SCC(=O)c3c[nH]c4ccccc34)nc2c1 2.83%
COc1ccc(N2CCN(C(=O)c3sc4nc5n(c(=O)c4c3C)CCC5)CC2)cc1 -17.1%
Cc1cccc(CCNC(=O)CCc2c(C)nc3ncnn3c2C)c1 0.185%
CCc1nn(CC(=O)NCc2ccc(OC)c(OC)c2)c(=O)c2cc3sc(C)cc3n12 -0.394%
Cc1ccccc1C(=O)OCc1cc(=O)n2c(C)csc2n1 -3.61%
CCOC(=O)c1c(NC(=O)c2cc3nc(-c4ccccc4)cc(C(F)(F)F)n3n2)sc2c1CCC(C)C2 (stereo unspecified) -2.88%
CCCNC(=O)c1cnc2sc(N3CCCCCC3)nn2c1=O 1.46%
CCOc1ccc(C(=O)Nc2ccccc2OCc2cc(=O)n3ccccc3n2)cc1 -22.2%
Cc1cc(C(=O)Nc2cccc(F)c2)c2c(C)nn(-c3cccc(Cl)c3C)c2n1 5.53%
COc1ccccc1OCCCCn1c(-c2ccc(Cl)cc2)nc2ccccc2c1=O 0.178%
COc1ccc(CCNC(=O)c2nc(SCc3ccc(C)cc3)ncc2Cl)cc1OC 1.59%
CN(C)c1ccc(C(=O)Nc2cccc(-c3nc4cccnc4s3)c2)cc1 -4.82%
O=C(Nc1ccc(C(F)(F)F)cc1)C1CCN(c2cnccn2)CC1 -7.98%
Cc1ccc(CCNC(=O)c2cc(C)nc3c2c(C)nn3-c2ccc(C)cc2)cc1 5.29%
COc1cccc(Cn2c(SCC(=O)N(C)c3ccccc3)nc3ccccc32)c1 6.52%
COc1cccc2cc(-c3csc(-c4ccc(Cl)cc4)n3)c(=O)oc12 0.0187%
CCc1c(C)c2ccc(O)c(CN3CCN(c4ccc(OC)cc4)CC3)c2oc1=O 0.17%
Cc1ccccc1CNC(=O)c1ccc(CSc2nc3cccnc3n2Cc2ccccc2)cc1 -6.42%
COC(=O)c1ccc(Cn2c(SCc3ccccc3)nc3ccncc32)cc1 -2.45%
Cc1ccc(-c2nc(CS(=O)(=O)CC(=O)NCc3ccc(Cl)cc3)c(C)o2)cc1 4.3%
CCc1ccc(-n2c(SCc3ccccc3C)nc3[nH]ncc3c2=O)cc1 -0.102%
CC(C)c1ccc(NC(=O)CCS(=O)(=O)c2cccc3nonc23)cc1 5.12%
CCc1ccc(-n2nc(C)c3c(C(=O)Nc4cc(C)c(Cl)cc4OC)cc(C)nc32)cc1 4.82%
CCOc1ccccc1NC(=O)Cn1c(=O)n(-c2ccc(F)cc2)c(=O)c2c3c(sc21)CN(C(C)=O)CC3 -13%
O=C(CN1CCSc2ccccc21)N1CCCCC1 -0.647%
Cc1ccc(CCNC(=O)c2ccc(CNS(=O)(=O)c3ccccc3)cc2)cc1 -7.42%
CC(=O)Nc1ccc(NC(=O)c2cc3sccc3n2Cc2ccc(Cl)cc2)cc1 -3.12%
